Screen size: about 350,000 compounds; about 9,900 (2.8%) were called active. Inconclusive results, whose numbers are uncertain, are shown with a selection of clear calls. Calls follow the shape of the dose curve; as a rule, active = well fitted activation curve with a large enough effect; inconclusive = small, poorly fitted or top-dose-only effect; inactive = no such curve, though single readings can be large or run the other way. Potencies of inconclusive entries are left out as doubtful fits.
Assay: A quantitative high throughput screen for small molecules that induce DNA re-replication in MCF 10a normal breast cells. Also: nearly all actives have a fitted effect of over 50% in size. As to activity, positive = re-replication: % of control where 0% means no effect.
Conditions: MCF 10A DNA re-replication, Hoechst nuclear intensity, 48 h; activity, positive = re-replication: at 46.1 µM (top of the series)
Potency is read from the fitted curve at half-maximal effect; tags tell the direction and shape of the fitted curve.

Structure (SMILES)	Potency	activity, positive = re-replication
C[C@]12CCC(=O)CC1CCC1C2CC[C@@]2(C)C1CC[C@@]21CCO1 (some centres not stated)	inconclusive [activator, single point]	–
O=C(C1CC(=O)N(C2CCCCC2)C1)N1CCN(c2cccc(C(F)(F)F)c2)CC1 (configuration not stated)	inconclusive [activator, partial curve, poor fit]	–
COc1ccccc1OCc1nc(C#N)c(N2CC(C)CC(C)C2)o1 (configuration not stated)	inactive	–
Cc1ccc(NS(=O)(=O)c2cc(C(=O)NCCCN(C)C)ccc2Cl)cc1Cl	inconclusive [activator, single point]	–
NC(=O)CC(NC(=O)c1ccc(Br)cc1)c1ccc(N2CCC(Br)CC2)c([N+](=O)[O-])c1 (configuration not stated)	inconclusive [activator, single point]	–
Cc1nc2ccc(S(=O)(=O)NCC(=O)NC(C)c3ccccc3)cc2s1 (configuration not stated)	active: 0.651 µM	–
O=C1c2cc3ccccc3c(-c3ccccc3)c2C(=O)N1c1ccccn1	inactive	–
O=C(Cc1ccc(Br)cc1)Nc1ccc2[nH]ncc2c1	inconclusive [activator, single point]	–
O=C(O)Cc1cc(I)c(Oc2ccc(O)c(I)c2)c(I)c1	inconclusive [activator, partial curve, poor fit]	–
COc1ccc(CNC(=O)COC(=O)CCOc2ccc(C)cc2)cc1OC	inactive	–
CCn1cc(C(=O)N(C)c2ccc(OC)cc2OC)c2cc(OC)c(OC)cc2c1=O	inactive	–
COCCNC(=O)Cn1cnc2c(cnn2-c2ccc(OC)cc2)c1=O	inactive	–
COc1ccc(-c2cc(-c3ccccc3)c(C#N)c(SCC(=O)Nc3ncc(C)s3)n2)cc1	active: 23.1 µM	–
CCOC(=O)/C=C/C(=O)Nc1ccc(S(=O)(=O)Nc2cc(C)on2)cc1	inconclusive [activator, partial curve, poor fit]	–
Cc1sc2nc(CSCC(=O)N(C)CC(=O)Nc3ccc(F)cc3)[nH]c(=O)c2c1C	inconclusive [activator, single point]	–
O=S(=O)(Cc1ccccc1Cl)N1CCN(Cc2ccc3c(c2)OCO3)CC1	inconclusive [activator, single point]	–
Cc1cc(NC(=O)C2CCCCC2C(=O)O)no1 (configuration not stated)	inconclusive [activator, single point]	–
COc1ccc(Cl)cc1NC(=O)C(C)N1CCN(C/C=C/c2ccccc2)CC1 (configuration not stated)	inconclusive [activator, single point]	–
COc1ccc(NC(=O)CSc2nc(-c3ccco3)nc3cc(=O)[nH]n23)cc1Cl	inconclusive [activator, single point]	–
O=C(/C=C/c1ccc([N+](=O)[O-])cc1)c1cccnc1	inconclusive [activator, single point]	–
C(=C\c1ccccc1)/CN1CCN(Cc2nc(Cc3ccccc3)no2)CC1	inconclusive [activator, single point]	–
O=C(Nc1ccc2c(c1)OCCO2)C1CCN(S(=O)(=O)c2cccs2)CC1	inactive	–
N=c1c(C(=O)NCC2CCCO2)cc2c(=O)n3ccccc3nc2n1C1CCCCC1 (configuration not stated)	active: 14.6 µM	–
Cc1c(C(N)=O)sc2ncn(CC(=O)N(C)C3CCCCC3)c(=O)c12	inactive	–

Structure (SMILES)	Potency	activity, positive = re-replication
O=C(c1cccc2nc3ccccc3nc12)N1CCOCC1	inconclusive [activator, single point]	–
Cc1[nH]nc2c1C(=O)CC(C)(C)C2	inconclusive [activator, partial curve, poor fit]	–
CN(C)S(=O)(=O)c1cccc(-c2cn3cc(Cl)ccc3n2)c1	inactive	–
O=C(/C=C/c1cccc([N+](=O)[O-])c1)c1cccs1	active: 3.26 µM	–
CCC1=C(OC(=O)N(CC)CC)N2C(=O)OC(=NCC3CC3)[C@]2(Cc2ccccc2)[C@H]2C1=CC[C@H]1C(=O)NC(=O)[C@H]12	inconclusive [activator, single point]	–
O=S(=O)(c1ccccc1)c1cnn2c(C(F)(F)F)cc(-c3ccc(F)cc3)nc12	inconclusive [activator, single point]	–
CCOC(=O)c1cccc(NC(=O)CCc2ccccc2)c1	inconclusive [activator, partial curve, poor fit]	–
O=C(O)/C=C\C(=O)Nc1ccc(N2CCN(c3ccc(Cl)c(Cl)c3)CC2)cc1	inactive	–
S=c1[nH]nc(-c2cccnc2)n1/N=C/c1ccc(Br)s1	inactive	–
COc1ccccc1/C=N/NC(=O)CO	inactive	–
CCn1c(SCc2cccc(F)c2)nc2c(c1=O)SCC2	inconclusive [activator, single point]	–
C[C@@]12C(=O)N(CC3CCCO3)CC(=O)N1[C@@H]1c3ccccc3OC[C@@H]1[C@@H]2c1ccccc1 (some centres not stated)	inactive	–
C=CCOc1ccc(C(=O)Nc2ccccc2C(=O)N2CCCC2)cc1	inconclusive [activator, single point]	–
CCOC(=O)c1ccc2ncc(C(=O)OCC)c(NCCN3CCOCC3)c2c1	inactive	–
O[C@@H]1CN(Cc2ccc(-n3cccn3)cc2)CC[C@H]1N1CCN(c2ccccc2F)CC1	inconclusive [activator, partial curve, poor fit]	–
COc1ccccc1N(CC(=O)NCc1cccnc1)S(C)(=O)=O	inconclusive [activator, single point]	–
COc1ccc(OC)c(Nc2nc(NCCCN(C)C)nc(N)c2[N+](=O)[O-])c1	inconclusive [activator, single point]	–
O=C(NNC(=S)NC(=O)c1ccccc1)c1cccc([N+](=O)[O-])c1	inactive	–
Cn1c(=O)c(=O)n(C)c2cc([N+](=O)[O-])c([N+](=O)[O-])cc21	inconclusive [activator, single point]	–
CCCCCCn1c(N2CCN(c3cccc(Cl)c3)CC2)nc2c1c(=O)[nH]c(=O)n2C	inconclusive [activator, full curve]	–
CCOc1ccccc1C(=O)N1c2ccccc2Sc2ccccc21	inconclusive [activator, single point]	–
COc1ccc(C)cc1NC(=O)CO/N=C(\N)CC(=O)NC1CCCCC1	inactive	–
COc1cccc2c1CCC1=CC(=O)CCC12C (configuration not stated)	inconclusive [activator, partial curve, poor fit]	–
O=C1CNCc2[nH]c3ccccc3c2N1c1ccccc1	inconclusive [activator, single point]	–

Structure (SMILES)	Potency	activity, positive = re-replication
COc1ccc(-c2n[nH]c(C)c2-c2ccc(Cl)cc2)c(O)c1	inconclusive [activator, single point]	–
CCN(CC)CCCNC(=O)c1cc(Nc2ccc(OC)cc2)nc2ccccc12	inconclusive [activator, single point]	–
Cn1nc(-c2ccccc2)c(CN2CCN(c3ncccn3)CC2)c1Cl	inconclusive [activator, partial curve, poor fit]	–
CCOc1ccc(C2C=C(c3ccc(C)cc3)Nc3nnnn32)cc1 (configuration not stated)	inconclusive [activator, full curve, poor fit]	–
Oc1cccc(Nc2nc(N3CCOCC3)nc(N3CCOCC3)n2)c1	active: 23.1 µM	–
Cc1cc(C)c2sc(NC(=O)c3ccc([N+](=O)[O-])o3)nc2c1	active: 20.6 µM	–
CC1CC(C)CN(CCCNC(=O)c2cc3c(s2)-c2ccccc2OC3)C1 (configuration not stated)	inconclusive [activator, single point]	–
CCOc1ccc(/C=C/C2=NNC(=O)CC2)cc1	inactive	–
CCOc1ccc(NC(=O)CN2C(=O)COc3ccc(Cl)cc32)cc1	inactive	–
CC(=O)NNc1ncnc2ccccc12	inactive	–
O=C(Nc1ccc2ccccc2c1)c1ccc(Br)o1	inconclusive [activator, single point]	–
Fc1ccccc1NC(=S)NCCc1ccccc1	–	inconclusive: 62.2% [activator]
C=CCn1c(SCC(=O)Nc2c(C)nn(Cc3ccccc3)c2C)nnc1C(O)c1ccccc1 (configuration not stated)	inconclusive [activator, single point]	–
CCn1c(O)c(C=Nc2ccccc2)sc1=S	inactive	–
CSc1ccccc1C(=O)OCC(=O)Nc1ccc(N2CCOCC2)cc1	inactive	–
O=Cc1cn(CCOc2ccccc2)c2ccccc12	inactive	–
O=C(OCCCOC(=O)c1ccc(O)cc1)c1ccc(O)cc1	inactive	–
CC(C)C1Cc2c(sc3ncnc(NN)c23)CO1 (configuration not stated)	inactive	–
CC(C)(C)C1CCc2c(C(=O)NNC(=O)/C=C/C(=O)O)csc2C1 (configuration not stated)	inconclusive [activator, partial curve, poor fit]	–
COc1ccc(-n2nc3ccc(NS(C)(=O)=O)cc3n2)cc1Cl	inconclusive [activator, single point]	–
COC(=O)c1ccc(N2CCN(CC(=O)c3ccc(C)cc3)CC2)c([N+](=O)[O-])c1	inconclusive [activator, partial curve, poor fit]	–
COc1ccc(Nc2nc(-c3c[nH]c4ccccc34)cs2)cc1	active: 16.4 µM	–
O=C(CN1CCN(c2ccc(O)cc2)CC1)NC1CCCc2ccccc21 (configuration not stated)	inconclusive [activator, partial curve]	–
Cc1ccc([N+](=O)[O-])cc1NC(=O)CN(C(=O)c1ccccc1Cl)C1CCCCC1	inactive	–

From PubChem BioAssay AID624296 (National Center for Advancing Translational Sciences (NCATS), 2012)
